Experimental data taken from the supplement of paper PMC8728848.
This is one part of the list.

How the values were obtained:
Assay in all cases: glycan array binding signal (z-score within array); higher = stronger binding
Details in all cases: glycan notation: IUPAC condensed, linker removed
[1] = molecular target: Gal(b1-4)GlcNAc(b1-3)Gal(b1-4)GlcNAc(b1-6)[Gal(b1-3)]GalNAc
Method in brief: (§1)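 Glycan array data were curated from 3228 arrays in the Consortium for Functional Glycomics database and kept only where the protein sequence was available. Glycan names were converted to IUPAC-condensed notation, and columns mapping to the same glycan were averaged. The binding signal is a within-array Z-score, averaged across arrays of the same protein sequence at different concentrations or buffers and across linkers. Negative Z-scores can be read as non-binding.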

[2] = molecular target: Gal(b1-4)GlcNAc(b1-3)Gal(b1-4)[Fuc(a1-3)]GlcNAc(b1-3)Gal(b1-4)[Fuc(a1-3)]GlcNAc
Method in brief: as §1

[3] = molecular target: Gal(b1-4)GlcNAc(b1-3)GalNAc
Method in brief: as §1

[4] = molecular target: Gal(b1-4)GlcNAc(b1-3)[Fuc(a1-3)GlcNAc(b1-6)]Gal(b1-4)Glc
Method in brief: as §1

[5] = molecular target: Gal(b1-4)GlcNAc(b1-3)[Gal(b1-4)GlcNAc(b1-6)]Gal(b1-4)GlcNAc
Method in brief: as §1

[6] = molecular target: Gal(b1-4)GlcNAc(b1-3)[GlcNAc(b1-6)]Gal(b1-4)GlcNAc
Method in brief: as §1

[7] = molecular target: Gal(b1-4)GlcNAc(b1-6)Gal(b1-4)GlcNAc
Method in brief: as §1

[8] = molecular target: Gal(b1-4)GlcNAc(b1-6)GalNAc
Method in brief: as §1

[9] = molecular target: Gal(b1-4)GlcNAc(b1-6)[Gal(b1-3)]GalNAc
Method in brief: as §1

[10] = molecular target: Gal(b1-4)GlcNAc(b1-6)[Gal(b1-4)GlcNAc(b1-3)]GalNAc
Method in brief: as §1

Gal(b1-4)GlcNAc6P = molecular target: Gal(b1-4)GlcNAc6P
Method in brief: as §1

Gal(b1-6)Gal = molecular target: Gal(b1-6)Gal
Method in brief: as §1

Gal3S(b1-3)GalNAc = molecular target: Gal3S(b1-3)GalNAc
Method in brief: as §1

Gal3S(b1-3)GlcNAc = molecular target: Gal3S(b1-3)GlcNAc
Method in brief: as §1

[11] = molecular target: Gal3S(b1-3)[Fuc(a1-4)]GlcNAc
Method in brief: as §1

Gal3S(b1-4)Glc = molecular target: Gal3S(b1-4)Glc
Method in brief: as §1

Gal3S(b1-4)Glc6S = molecular target: Gal3S(b1-4)Glc6S
Method in brief: as §1

Gal3S(b1-4)GlcNAc = molecular target: Gal3S(b1-4)GlcNAc
Method in brief: as §1

[12] = molecular target: Gal3S(b1-4)[Fuc(a1-3)]Glc6S
Method in brief: as §1

[13] = molecular target: Gal3S(b1-4)[Fuc(a1-3)]GlcNAc
Method in brief: as §1

[14] = molecular target: Gal3S(b1-4)[Fuc(a1-3)]GlcNAc6S
Method in brief: as §1

Gal3S4S(b1-4)GlcNAc = molecular target: Gal3S4S(b1-4)GlcNAc
Method in brief: as §1

Gal3S6S(b1-4)GlcNAc = molecular target: Gal3S6S(b1-4)GlcNAc
Method in brief: as §1

Gal3S6S(b1-4)GlcNAc6S = molecular target: Gal3S6S(b1-4)GlcNAc6S
Method in brief: as §1

Gal4S(b1-4)GlcNAc = molecular target: Gal4S(b1-4)GlcNAc
Method in brief: as §1

Gal4S6S(b1-4)GlcNAc = molecular target: Gal4S6S(b1-4)GlcNAc
Method in brief: as §1

Gal6P(b1-4)GlcNAc = molecular target: Gal6P(b1-4)GlcNAc
Method in brief: as §1

Gal6S(b1-3)GlcNAc = molecular target: Gal6S(b1-3)GlcNAc
Method in brief: as §1

Gal6S(b1-3)GlcNAc6S = molecular target: Gal6S(b1-3)GlcNAc6S
Method in brief: as §1

Gal6S(b1-4)Glc = molecular target: Gal6S(b1-4)Glc
Method in brief: as §1

Gal6S(b1-4)Glc6S = molecular target: Gal6S(b1-4)Glc6S
Method in brief: as §1

Gal6S(b1-4)GlcNAc = molecular target: Gal6S(b1-4)GlcNAc
Method in brief: as §1

Gal6S(b1-4)GlcNAc6S = molecular target: Gal6S(b1-4)GlcNAc6S
Method in brief: as §1

GalNAc(a1-3)Gal = molecular target: GalNAc(a1-3)Gal
Method in brief: as §1

GalNAc(a1-3)GalNAc = molecular target: GalNAc(a1-3)GalNAc
Method in brief: as §1

[15] = molecular target: GalNAc(a1-3)GalNAc(a1-3)Gal(a1-4)Gal(b1-4)GlcNAc
Method in brief: as §1

[16] = molecular target: GalNAc(a1-3)GalNAc(b1-3)Gal(a1-4)Gal(b1-4)Glc
Method in brief: as §1

GalNAc(b1-3)Gal = molecular target: GalNAc(b1-3)Gal
Method in brief: as §1

[17] = molecular target: GalNAc(b1-3)Gal(a1-4)Gal(b1-4)GlcNAc
Method in brief: as §1

[18] = molecular target: GalNAc(b1-3)Gal(a1-4)Gal(b1-4)GlcNAc(b1-3)Gal(b1-4)Glc
Method in brief: as §1

[19] = molecular target: GalNAc(b1-3)Gal(a1-6)Gal(b1-4)Glc
Method in brief: as §1

GalNAc(b1-3)GalNAc = molecular target: GalNAc(b1-3)GalNAc
Method in brief: as §1

GalNAc(b1-3)GlcNAc = molecular target: GalNAc(b1-3)GlcNAc
Method in brief: as §1

GalNAc(b1-4)Gal(b1-4)Glc = molecular target: GalNAc(b1-4)Gal(b1-4)Glc
Method in brief: as §1

GalNAc(b1-4)GlcNAc = molecular target: GalNAc(b1-4)GlcNAc
Method in brief: as §1

B1: MPA (Maclura pomifera), P18674 (protein)
chain: GVTFDDGAYTGIREINFEYNSETAIGGLRVTYDLNGMPFVAEDHKSFITGFKPVKISLEFPSEYIVEVSGYVGKVEGYTVIRSLTFKTNKQTYGPYGVTNGTPFSLPIENGLIVGFKGSIGYWLDYFSIYLSL
In the case of B1, the “glycan array binding signal (z-score)” value [1] is reported as 2.93, the “glycan array binding signal (z-score)” value [2] is reported as -0.197 and the “glycan array binding signal (z-score)” value [3] is reported as -0.203. For the same binder, the “glycan array binding signal (z-score)” value [4] was -0.067, the “glycan array binding signal (z-score)” value [5] was -0.185 and the “glycan array binding signal (z-score)” value [6] was -0.172. For the same binder, the “glycan array binding signal (z-score)” value [7] was -0.251, the “glycan array binding signal (z-score)” value [8] was -0.203 and the “glycan array binding signal (z-score)” value [9] was -0.192. For the same binder, the “glycan array binding signal (z-score)” value [10] was -0.28, the “glycan array binding signal (z-score)” value (Gal(b1-4)GlcNAc6P) was -0.139 and the “glycan array binding signal (z-score)” value (Gal(b1-6)Gal) was -0.265. The “glycan array binding signal (z-score)” value (Gal3S(b1-3)GalNAc) was -0.236, the “glycan array binding signal (z-score)” value (Gal3S(b1-3)GlcNAc) was -0.257 and the “glycan array binding signal (z-score)” value [11] was -0.185. The “glycan array binding signal (z-score)” value (Gal3S(b1-4)Glc) was -0.108, the “glycan array binding signal (z-score)” value (Gal3S(b1-4)Glc6S) was -0.112 and the “glycan array binding signal (z-score)” value (Gal3S(b1-4)GlcNAc) was -0.109. The “glycan array binding signal (z-score)” value [12] was 0.049, the “glycan array binding signal (z-score)” value [13] was -0.229 and the “glycan array binding signal (z-score)” value [14] was -0.226. For the same binder, the “glycan array binding signal (z-score)” value (Gal3S4S(b1-4)GlcNAc) was -0.227, the “glycan array binding signal (z-score)” value (Gal3S6S(b1-4)GlcNAc) was -0.234 and the “glycan array binding signal (z-score)” value (Gal3S6S(b1-4)GlcNAc6S) was -0.22. For the same binder, the “glycan array binding signal (z-score)” value (Gal4S(b1-4)GlcNAc) was -0.253, the “glycan array binding signal (z-score)” value (Gal4S6S(b1-4)GlcNAc) was -0.203 and the “glycan array binding signal (z-score)” value (Gal6P(b1-4)GlcNAc) was -0.561. The “glycan array binding signal (z-score)” value (Gal6S(b1-3)GlcNAc) was -0.244, the “glycan array binding signal (z-score)” value (Gal6S(b1-3)GlcNAc6S) was -0.349 and the “glycan array binding signal (z-score)” value (Gal6S(b1-4)Glc) was -0.243. For the same binder, the “glycan array binding signal (z-score)” value (Gal6S(b1-4)Glc6S) was -0.272, the “glycan array binding signal (z-score)” value (Gal6S(b1-4)GlcNAc) was -0.181 and the “glycan array binding signal (z-score)” value (Gal6S(b1-4)GlcNAc6S) was -0.25. For the same binder, the “glycan array binding signal (z-score)” value (GalNAc(a1-3)Gal) was -0.174, the “glycan array binding signal (z-score)” value (GalNAc(a1-3)GalNAc) was -0.381 and the “glycan array binding signal (z-score)” value [15] was -0.28. For the same binder, the “glycan array binding signal (z-score)” value [16] was -0.324, the “glycan array binding signal (z-score)” value (GalNAc(b1-3)Gal) was -0.205 and the “glycan array binding signal (z-score)” value [17] was -0.161. For the same binder, the “glycan array binding signal (z-score)” value [18] was -0.179, the “glycan array binding signal (z-score)” value [19] was -0.122 and the “glycan array binding signal (z-score)” value (GalNAc(b1-3)GalNAc) was -0.262. The “glycan array binding signal (z-score)” value (GalNAc(b1-3)GlcNAc) was -0.211, the “glycan array binding signal (z-score)” value (GalNAc(b1-4)Gal(b1-4)Glc) was -0.154 and the “glycan array binding signal (z-score)” value (GalNAc(b1-4)GlcNAc) was -0.162.
